According to the supplement of paper PMC7580552:
Structures can show the parent of a compound that is named as a salt. The list shows a part of the results. Repeats are few or missing, and single values can be far off.

These compounds were tested on Escherichia coli W3110 (assay: planktonic growth (OD600) relative to untreated control; higher = more growth). Details: 10 µM; 20-24 h; 30 °C; TB.
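Note: stationary (unshaken) cultures in 96-well plates, started at OD600 0.05 from mid-exponential cells, with compounds supplied from DMSO stocks.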

Row | Structure (SMILES) | planktonic growth [%]
1 | CCC1=C(C)CN(C(=O)NCCc2ccc(S(=O)(=O)NC(=O)N[C@H]3CC[C@H](C)CC3)cc2)C1=O [Glimepiride] | 100
2 | O=C1CCc2cc(OCCCCc3nnnn3C3CCCCC3)ccc2N1 [Cilostazol] | 95
3 | CCS(=O)(=O)CCn1c([N+](=O)[O-])cnc1C [Tinidazole] | 103
4 | CCCCOc1cc(C(=O)NCCN(CC)CC)c2ccccc2n1 [Dibucaine] | 99
5 | COc1ccc2cc([C@@H](C)C(=O)O)ccc2c1 [(R) -Naproxen sodium salt] | 100
6 | Nc1nc(=O)c2c([nH]1)NC[C@@H](CNc1ccc(C(=O)N[C@@H](CCC(=O)O)C(=O)O)cc1)N2C=O [Folinic acid calcium salt] | 94
7 | CCCCC(CC)CNC(=N)NC(=N)NCCCCCCNC(=N)NC(=N)NCC(CC)CCCC (centres undefined) [Alexidine dihydrochloride] | 24
8 | COC(=O)[C@@H]1[C@H]2C[C@H]3c4[nH]c5ccccc5c4CCN3C[C@@H]2CC[C@@H]1O [Yohimbine hydrochloride] | 95
9 | CC1(C)NC(=O)N(c2ccc([N+](=O)[O-])c(C(F)(F)F)c2)C1=O [Nilutamide] | 108
10 | CN(CCOc1ccc(CC2SC(=O)NC2=O)cc1)c1ccccn1 (centres undefined) [Rosiglitazone Hydrochloride] | 97
11 | CCC(=O)OCC(=O)[C@@]1(OC(=O)CC)[C@H](C)C[C@H]2[C@H]3[C@H]([C@@H](O)C[C@@]21C)[C@@]1(C)C=CC(=O)C=C1C[C@H]3Cl [Alclometasone dipropionate] | 96
12 | CC(N)C12CC3CC(CC(C3)C1)C2 (centres undefined) [Rimantadine Hydrochloride] | 100
13 | COc1ccc(C[C@@H]2c3cc(OC)c(OC)cc3CC[N@+]2(C)CCC(=O)OCCCCCOC(=O)CC[N@@+]2(C)CCc3cc(OC)c(OC)cc3[C@H]2Cc2ccc(OC)c(OC)c2)cc1OC [Cisatracurium besylate] | 107
14 | Nc1cc(-c2ccncc2)c[nH]c1=O [Amrinone] | 104
15 | Brc1c(NC2=NCCN2)ccc2nccnc12 [Brimonidine L-Tartrate] | 94
16 | CN(C)CCOC(=O)COc1ccc(Cl)cc1 [Meclofenoxate hydrochloride] | 105
17 | N=C(N)N/N=C/c1c(Cl)cccc1Cl [Guanabenz acetate] | 96
18 | OC(CCN1CCCCC1)(c1ccccc1)C1CCCCC1 (centres undefined) [Trihexyphenidyl-D,L Hydrochloride] | 101
19 | COc1ccc(C(=O)NCc2ccc(OCCN(C)C)cc2)cc1OC [Itopride] | 97
20 | N[C@@H](C(=O)N[C@@H]1C(=O)N2C(C(=O)O)=C(Cl)CS[C@H]12)c1ccccc1 [Cefaclor hydrate] | 67
21 | CC(Oc1ccccc1)C(=O)N[C@@H]1C(=O)N2[C@@H]1SC(C)(C)[C@@H]2C(=O)O (some centres undefined) [Phenethicillin potassium salt] | 104
22 | CN(C)[C@@H]1C(O)=C(C(N)=O)C(=O)[C@@]2(O)C(O)=C3C(=O)c4c(O)ccc(Cl)c4[C@@H](O)[C@H]3C[C@@H]12 [Demeclocycline hydrochloride] | 22
23 | Cn1c([N+](=O)[O-])cnc1COC(N)=O [Ronidazole] | 92
24 | O=C1c2ccccc2S(=O)(=O)N1CCCCN1CCN(c2ncccn2)CC1 [Ipsapirone] | 107
25 | CC(Oc1c(Cl)cccc1Cl)C1=NCCN1 (centres undefined) [Lofexidine] | 110

Row | Structure (SMILES) | planktonic growth [%]
26 | CC1=C(CC(=O)O)c2cc(F)ccc2/C1=C\c1ccc([S+](C)[O-])cc1 (centres undefined) [Sulindac] | 100
27 | Cc1noc(NS(=O)(=O)c2ccc(N)cc2)c1C [Sulfisoxazole] | 52
28 | CCc1cccc2c3c([nH]c12)C(CC)(CC(=O)O)OCC3 (centres undefined) [Etodolac] | 112
29 | CC[N+](CC)(CC)CCC(O)(c1ccccc1)C1CCCCC1 (centres undefined) [Tridihexethyl chloride] | 105
30 | C[C@]12CC[C@@H]3c4ccc(O)cc4CC[C@H]3[C@@H]1C[C@@H](O)[C@@H]2O [Estriol] | 89
31 | CN(C)CCCO[C@@H]1[C@H]2OC(C)(C)O[C@H]2O[C@@H]1[C@H](O)CO [Amiprilose hydrochloride] | 100
32 | CO/N=C(\C(=O)N[C@@H]1C(=O)N2C(C(=O)O)=C(C[N+]3(C)CCCC3)CS[C@H]12)c1csc(N)n1 [Cefepime hydrochloride] | 18
33 | CCOC(=O)[C@H](CCc1ccccc1)N[C@@H](C)C(=O)N1CCC[C@H]1C(=O)O [Enalapril maleate] | 100
34 | COc1ccc2[nH]c([S+]([O-])Cc3ncc(C)c(OC)c3C)nc2c1 (centres undefined) [Omeprazole] | 88
35 | CC(=O)Nc1ccc(O)cc1 [Acetaminophen] | 96
36 | OCCOCCN1CCN(C(c2ccccc2)c2ccc(Cl)cc2)CC1 (centres undefined) [Hydroxyzine dihydrochloride] | 94
37 | C=CC1=C(C(=O)O)N2C(=O)[C@@H](NC(=O)/C(=N\OCC(=O)O)c3csc(N)n3)[C@H]2SC1 [Cefixime] | 2
38 | Cc1cc(-n2c(=O)[nH]c(=O)n(C)c2=O)ccc1Oc1ccc(SC(F)(F)F)cc1 [Toltrazuril] | 96
39 | Cc1ccccc1N1C(=O)c2cc(S(N)(=O)=O)c(Cl)cc2NC1C (centres undefined) [Metolazone] | 25
40 | CN(C)CCOC(c1ccc(Cl)cc1)c1ccccn1 (centres undefined) [Carbinoxamine maleate salt] | 113
41 | O=C1CCc2ccc(OCCCCN3CCN(c4cccc(Cl)c4Cl)CC3)cc2N1 [Aripiprazole] | 120
42 | NC(=O)NC1NC(=O)NC1=O (centres undefined) [Allantoin] | 106
43 | CC(C)NCC(O)c1ccc(O)c(O)c1 (single isomer, unassigned; (-)) [(-)-Isoproterenol hydrochloride] | 93
44 | O=C1C(O)=C([C@H]2CC[C@H](c3ccc(Cl)cc3)CC2)C(=O)c2ccccc21 [Atovaquone] | 93
45 | Cc1ccccc1C(OCCN(C)C)c1ccccc1 (centres undefined) [Orphenadrine hydrochloride] | 102
46 | CN1CCN(c2c(F)cc3c(=O)c(C(=O)O)cn4c3c2SCC4)CC1 [Rufloxacin] | 8
47 | COC(=O)C1=C(C)NC(C)=C(C(=O)OCCN(C)Cc2ccccc2)C1c1cccc([N+](=O)[O-])c1 (centres undefined) [Nicardipine hydrochloride] | 93
48 | COC(=O)C1=C(C)NC(C)=C(C(=O)OCC(C)C)C1c1ccccc1[N+](=O)[O-] (centres undefined) [Nisoldipine] | 98
49 | CCC1NC(=O)c2cc(S(N)(=O)=O)c(Cl)cc2N1 (centres undefined) [Quinethazone] | 112
50 | O=C1[C@H](CC[C@H](O)c2ccc(F)cc2)[C@@H](c2ccc(O)cc2)N1c1ccc(F)cc1 [Ezetimibe] | 93

Row | Structure (SMILES) | planktonic growth [%]
51 | Cc1cnc(C(=O)NCCc2ccc(S(=O)(=O)NC(=O)NC3CCCCC3)cc2)cn1 [Glipizide] | 91
52 | CN1CCC(=C2c3ccccc3CCc3sccc32)CC1 [Pizotifen malate] | 99
53 | CN1CCOC(c2ccccc2)c2ccccc2C1 (centres undefined) [Nefopam hydrochloride] | 95
54 | CN(C)[C@@H]1C(O)=C(C(=O)NCNCCCC[C@H](N)C(=O)O)C(=O)[C@@]2(O)C(O)=C3C(=O)c4c(O)cccc4[C@@](C)(O)[C@H]3C[C@@H]12 [Lymecycline] | 80
55 | CCCCNc1ccc(C(=O)OCCN(C)C)cc1 [Tetracaine hydrochloride] | 91
56 | CCCCCOC(=O)Nc1nc(=O)n([C@@H]2O[C@H](C)[C@@H](O)[C@H]2O)cc1F [Capecitabine] | 93
57 | CCN(CC)CCOc1ccc(C(=C(Cl)c2ccccc2)c2ccccc2)cc1 [Clomiphene citrate (Z,E)] | 109
58 | Cc1cnc(C(=O)O)c[n+]1[O-] [Acipimox] | 95
59 | O=C(O)[C@H]1/C(=C/CO)O[C@@H]2CC(=O)N21 [Clavulanate potassium salt] | 83
60 | O=C(OCCOCCO)c1ccccc1Nc1cccc(C(F)(F)F)c1 [Etofenamate] | 104
61 | Nc1nc2[nH]cc(CCc3ccc(C(=O)N[C@@H](CCC(=O)O)C(=O)O)cc3)c2c(=O)[nH]1 [Pemetrexed disodium] | 104
62 | COc1ccc(C(=O)c2ccccc2O)c(O)c1 [Dioxybenzone] | 89
63 | CC(C)(C)NC[C@H](O)COc1ccccc1C1CCCC1 [Penbutolol sulfate] | 104
64 | COc1ccc(CN2CCN(C(c3ccc(F)cc3)c3ccc(F)cc3)CC2)c(OC)c1OC [Lomerizine hydrochloride] | 103
65 | CCN1CCC[C@H]1CNC(=O)c1c(O)c(Cl)cc(Cl)c1OC [Raclopride] | 91
66 | CC[C@@H]([C@H](C)O)n1ncn(-c2ccc(N3CCN(c4ccc(OC[C@@H]5CO[C@@](Cn6cncn6)(c6ccc(F)cc6F)C5)cc4)CC3)cc2)c1=O [Posaconazole] | 114
67 | CCCCC[C@H](O)/C=C/[C@H]1[C@H](O)CC(=O)[C@@H]1CCCCCCC(=O)O [Alprostadil] | 88
68 | CC(C(=O)O)c1ccc(C(=O)c2cccs2)cc1 (centres undefined) [Suprofen] | 94
69 | COc1cc2ncnc(Nc3ccc(F)c(Cl)c3)c2cc1OCCCN1CCOCC1 [Gefitinib] | 110
70 | CN1CCC[C@@H]1CCO[C@](C)(c1ccccc1)c1ccc(Cl)cc1 [Clemastine fumarate] | 101
71 | CCOc1ccc(NC(C)=O)cc1 [Phenacetin] | 89
72 | NS(=O)(=O)c1cc2c(cc1Cl)NC(CC1CCCC1)NS2(=O)=O (centres undefined) [Cyclopenthiazide] | 89
73 | CC(C)(C)NCC(O)c1cc(O)cc(O)c1 (centres undefined) [Terbutaline hemisulfate] | 110
74 | CCOC(=O)[N-]c1c[n+](N2CCOCC2)no1 [Molsidomine] | 89
